Data as given in the supplement of paper PMC7580552.
Counter-ions that a name gives are not always drawn. ± gives the standard deviation of the averaged measurements. The list shows a part of the results. Many values rest on one well or one pass, so single values are uncertain.

System: Escherichia coli W3110
Experiment: planktonic growth (OD600) relative to untreated control; higher = more growth
Conditions: 10 µM; 20-24 h; 30 °C; TB
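Also: stationary (unshaken) cultures in 96-well plates, started at OD600 0.05 from mid-exponential cells, with compounds supplied from DMSO stocks.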

| SMILES | planktonic growth |
| --- | --- |
| CCN(C)C(=O)Oc1cccc([C@H](C)N(C)C)c1 [Rivastigmine] | 100% |
| C[C@]12CC[C@@H]3c4ccc(OC(=O)N(CCCl)CCCl)cc4CC[C@H]3[C@@H]1CC[C@@H]2O [Estramustine] | 104% |
| C[N+]1([O-])[C@@H]2C[C@@H](OC(=O)[C@H](CO)c3ccccc3)C[C@H]1[C@@H]1O[C@@H]12 (some centres undefined) [Scopolamin-N-oxide hydrobromide] | 102% |
| CCN(CC)C(C)C(=O)c1ccccc1 (centres undefined) [Amfepramone hydrochloride] | 86% |
| Oc1cc(Cl)ccc1Oc1ccc(Cl)cc1Cl [Triclosan] | 21% |
| COc1ccc(CCN2CCC(Nc3nc4ccccc4n3Cc3ccc(F)cc3)CC2)cc1 [Astemizole] | 98% |
| CC(=O)O[C@H]1C[C@H](O[C@H]2[C@@H](O)C[C@H](O[C@H]3[C@@H](O)C[C@H](O[C@H]4CC[C@@]5(C)[C@H](CC[C@@H]6[C@@H]5C[C@@H](O)[C@]5(C)[C@@H](C7=CC(=O)OC7)CC[C@]65O)C4)O[C@@H]3C)O[C@@H]2C)O[C@H](C)[C@H]1O[C@@H]1O[C@H](CO)[C@@H](O)[C@H](O)[C@H]1O [Lanatoside C] | 98% |
| CC(C)(C)NCC(O)c1cc(Cl)c(N)c(Cl)c1 (centres undefined) [Clenbuterol hydrochloride] | 91% |
| Fc1ccc(C(OCCN2CCN(CCCc3ccccc3)CC2)c2ccc(F)cc2)cc1 | 103% |
| COc1ccc(Cc2nccc3cc(OC)c(OC)cc23)cc1OC [Papaverine hydrochloride] | 105% |
| CCC1(CC)C(=O)C=CNC1=O [Pyrithyldione] | 109% |
| CCN(C(C)=O)c1cccc(-c2ccnc3c(C#N)cnn23)c1 [Zaleplon] | 103% |
| NCCc1c[nH]c2ccc(O)cc12 [Serotonin hydrochloride] | 111% |
| CCC(COC(=O)c1cc(OC)c(OC)c(OC)c1)(c1ccccc1)N(C)C (centres undefined) [Trimebutine] | 112% |
| C[C@@H]1CC[C@H]2[C@@H](C)C(=O)O[C@@H]3O[C@@]4(C)CC[C@@H]1[C@]32OO4 [Artemisinin] | 73% |
| CCC1(c2cccc(O)c2)CCCCN(C)C1 (centres undefined) [Meptazinol hydrochloride] | 96% |
| COc1cc([C@@H]2c3cc4c(cc3[C@H](O)[C@H]3COC(=O)[C@H]23)OCO4)cc(OC)c1OC [Podophyllotoxin] | 92% |
| CC(C)C[C@H](CN)CC(=O)O [Pregabalin] | 109% |
| CC(C)(C)NCC(O)c1ccccc1Cl (centres undefined) [Tulobuterol] | 101% |
| C[C@]12Cc3c[nH]nc3C[C@@H]1CC[C@@H]1[C@@H]2CC[C@@]2(C)[C@H]1CC[C@]2(C)O [Stanozolol] | 92% |
| C[N+]12CCC(CC1)C(OC(=O)C(O)(c1ccccc1)c1ccccc1)C2 (centres undefined) [Clidinium bromide] | 98% |
| CC(=O)OCC1=C(C(=O)O)N2C(=O)[C@@H](N)[C@H]2SC1 [Cephalosporanic acid, 7-amino] | 99% |
| CO[C@]12C[C@@H](COC(=O)c3cncc(Br)c3)CN(C)[C@@H]1Cc1cn(C)c3cccc2c13 [Nicergoline] | 101% |
| CC(=O)OCC(=O)[C@H]1CC[C@H]2[C@@H]3CC[C@H]4C[C@H](O)CC[C@]4(C)[C@H]3C(=O)C[C@]12C [Alfadolone acetate] | 104% |
| NC(=O)CN1CCCC1=O [Piracetam] | 85% |

| SMILES | planktonic growth |
| --- | --- |
| CC(C)c1c(CN(C)C(C)Cc2ccccc2)n(C)n(-c2ccccc2)c1=O (centres undefined) [Famprofazone] | 97% |
| C=C(C)[C@@H]1[C@H]2OC(=O)[C@@H]1[C@]1(O)C[C@H]3O[C@]34C(=O)O[C@H]2[C@]14C [Picrotoxinin] | 98% |
| Cc1cccc(C)c1NC1=NCCCS1 [Xylazine] | 95% |
| NC(=O)C[S+]([O-])C(c1ccccc1)c1ccccc1 (centres undefined) [Modafinil] | 97% |
| CN1CCN(C(=O)OC2c3nccnc3C(=O)N2c2ccc(Cl)cn2)CC1 (centres undefined) [Zopiclone] | 93% |
| Clc1ccc(C(OCCN2CCCCC2)c2ccccc2)cc1 (centres undefined) [Cloperastine hydrochloride] | 96% |
| C[C@]12CC[C@H](O)C[C@H]1CC[C@@H]1[C@@H]2C[C@@H](O)[C@]2(C)[C@@H](C3=CC(=O)OC3)CC[C@]12O [Digoxigenin] | 101 ± 2.8% |
| CC(Cc1ccccc1)NCCC(c1ccccc1)c1ccccc1 (centres undefined) [Prenylamine lactate] | 104% |
| CC(=O)NC1CCSC1=O (racemic) [N-Acetyl-DL-homocysteine Thiolactone] | 107% |
| C[C@]12CC[C@@H](O)C[C@H]1CC[C@@H]1[C@@H]2CC[C@]2(C)C(=O)CC[C@@H]12 [3-alpha-Hydroxy-5-beta-androstan-17-one] | 94% |
| C#CCN(C)[C@H](C)Cc1ccccc1 [Selegiline hydrochloride] | 100% |
| CN(C)C(=O)Oc1ccc[n+](C)c1 [Pyridostigmine iodide] | 106% |
| O=c1[nH]c2ccccc2n1C1CCN(CCCC(c2ccc(F)cc2)c2ccc(F)cc2)CC1 [Pimozide] | 103% |
| NCCCNCCSP(=O)(O)O [Amifostine] | 72% |
| CC1OC(OC2/C=C/C=C/C=C/C=C/CC/C=C/C=C/[C@H](C)[C@@H](O)[C@@H](C)[C@H](C)OC(=O)CC(O)CC(O)CC(O)CCC(O)C(O)C[C@]3(O)CC(O)C(C(=O)O)C(C2)O3)C(O)C(N)C1O (some centres undefined) [Nystatine] | 101% |
| CNC(C)(C)Cc1ccccc1 [Mephentermine hemisulfate] | 102% |
| C[C@]12CCC(=O)C(O)=C1CC[C@@H]1[C@@H]2CC[C@]2(C)C(=O)CC[C@@H]12 [Formestane] | 94% |
| CC(C)C[C@H]1C(=O)N2CCC[C@H]2[C@]2(O)O[C@](NC(=O)[C@@H]3C=C4c5cccc6[nH]c(Br)c(c56)C[C@H]4N(C)C3)(C(C)C)C(=O)N12 [Bromocryptine mesylate] | 79% |
| CCNCC(O)c1cccc(O)c1 (centres undefined) [Etilefrine hydrochloride] | 86% |
| CC(C)(N)Cc1ccccc1 [Phentermine hydrochloride] | 89% |
| CNC(=O)Oc1ccc2c(c1)[C@]1(C)CCN(C)[C@@H]1N2C [Eserine hemisulfate salt] | 102% |
| CN(C)C(=O)Oc1cccc([N+](C)(C)C)c1 [Neostigmine bromide] | 97% |
| COc1ccc(C(CN(C)C)C2(O)CCCCC2)cc1 (centres undefined) [Venlafaxine] | 96% |
| CC(=O)[C@H]1CC[C@H]2[C@@H]3CC[C@H]4C[C@H](O)CC[C@]4(C)[C@H]3C(=O)C[C@]12C [Alfaxalone] | 101% |
| C=C1C[C@@H]2[C@H](CC[C@]3(C)C(=O)CC[C@@H]23)[C@@]2(C)C=CC(=O)C=C12 [Exemestane] | 102% |

| SMILES | planktonic growth |
| --- | --- |
| C[C@]12C/C(=C/O)C(=O)C[C@@H]1CC[C@@H]1[C@@H]2CC[C@@]2(C)[C@H]1CC[C@]2(C)O [Oxymetholone] | 98% |
| COC[C@@H](NC(C)=O)C(=O)NCc1ccccc1 [Lacosamide] | 92% |
| C[C@]12COC(=O)C[C@@H]1CC[C@@H]1[C@@H]2CC[C@@]2(C)[C@H]1CC[C@]2(C)O [Oxandrolone] | 93% |
| CN1C(=O)CCS(=O)(=O)C1c1ccc(Cl)cc1 (centres undefined) [Chlormezanone] | 89% |
| COc1ccc(OC)c(C(O)C(C)N)c1 (centres undefined) [Methoxamine hydrochloride] | 85% |
| CCC(=O)O[C@H]1CC[C@H]2[C@@H]3CCC4=CC(=O)CC[C@]4(C)[C@H]3CC[C@]12C [Testosterone propionate] | 109% |
| C[C@@H]1CN([C@H]2CC[C@](C#N)(c3ccc(F)cc3)CC2)CC[C@]1(C(=O)O)c1ccccc1 [Levocabastine hydrochloride] | 100% |
| C=CCC1(CC(C)C)C(=O)NC(=O)NC1=O [Butalbital] | 100% |
| O=C(CCCN1CCC(n2c(=O)[nH]c3ccccc32)CC1)c1ccc(F)cc1 [Benperidol] | 105% |
| OC(c1ccccc1)(c1ccccc1)C1CCNCC1 [Azacyclonol] | 96% |
| NC(=O)OCCCc1ccccc1 [Phenprobamate] | 97% |
| C[N+]1(C)CCCC(OC(=O)C(O)(c2ccccc2)c2ccccc2)C1 (centres undefined) [Mepenzolate bromide] | 99% |
| CCCC(C)(COC(N)=O)COC(=O)NC(C)C (centres undefined) [Carisoprodol] | 98% |
| CC(O)(CS(=O)(=O)c1ccc(F)cc1)C(=O)Nc1ccc(C#N)c(C(F)(F)F)c1 (centres undefined) [Bicalutamide] | 98% |
| CCOC(=O)c1cncn1[C@H](C)c1ccccc1 [Etomidate] | 110% |
| NCC1(CC(=O)O)CCCCC1 [Gabapentin] | 97% |
| CC(N)C(O)c1ccccc1 (centres undefined) [Phenylpropanolamine hydrochloride] | 97% |
| O=C(CCCN1CCC2(CC1)C(=O)NCN2c1ccccc1)c1ccc(F)cc1 [Spiperone] | 106% |
| C=C1CC[C@@]2(O)[C@H]3Cc4ccc(O)c5c4[C@@]2(CCN3CC2CC2)[C@H]1O5 [Nalmefene hydrochloride] | 96% |
| O=[N+]([O-])O[C@H]1CO[C@H]2[C@@H]1OC[C@H]2O[N+](=O)[O-] [Isosorbide dinitrate] | 106% |
| O=c1[nH]oc2c1CCNC2 [THIP Hydrochloride] | 102% |
| CC[C@@H](CO)NC(=O)[C@@H]1C=C2c3cccc4[nH]cc(c34)C[C@H]2N(C)C1 [Methylergometrine maleate] | 90% |
| Cc1cc(C(C#N)c2ccc(Cl)cc2)c(Cl)cc1NC(=O)c1cc(I)cc(I)c1O (centres undefined) [Closantel] | 95% |
| C[C@@H]1C[C@@H]([C@H](O)CC2CC(=O)NC(=O)C2)C(=O)[C@@H](C)C1 [Cycloheximide] | 93% |
